The list shows a part of the results. The list includes weakly bound sequences.

For the experiment, the target named is T1, MBP-FoxP3dN (UniProt Q99JB6).
T1 sequence: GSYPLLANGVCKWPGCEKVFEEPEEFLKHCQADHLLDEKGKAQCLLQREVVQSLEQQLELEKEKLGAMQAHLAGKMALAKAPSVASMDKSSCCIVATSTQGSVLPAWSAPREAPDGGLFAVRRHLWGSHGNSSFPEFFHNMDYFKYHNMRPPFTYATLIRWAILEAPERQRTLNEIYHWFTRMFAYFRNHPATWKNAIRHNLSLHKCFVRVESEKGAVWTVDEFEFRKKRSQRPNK
As to the kind of experiment: PD-seq (MBP pull-down with sequencing). The note with it: 20 mM Tris-HCl pH 7.5, 100 mM NaCl, 1.5 mM MgCl2, 0.4 uM protein, 0.1 uM dsDNA library, 30 min, room temperature, amylose pull-down; high values mean tight binding; double strand, one strand shown.
On to “GATGATTGTTCTCCCAGCTGATGAATTATCAATATCGAGTAAACAAATTTTCCTAATCTTTCTGTTCAAGCGCCATCTAC”, for which the binding signal (RPM ratio (pull-down/input)) amounted to 0.732. For “GATGATTGTTCTCCCAGCTGATGAATTCGTAATCTCGAGTAAACAAATTTTCCTAATCTTTCTGTTCAAGCGCCATCTAC”, the binding signal (RPM ratio (pull-down/input)) is 0.67. As for “GATGATTGTTCTCCCAGCTGATGAATTCGTTAGTTCGAGTAAACAAATTTTCCTAATCTTTCTGTTCAAGCGCCATCTAC”, the binding signal (RPM ratio (pull-down/input)) is 2.91.

Consider “GATGATTGTTCTCCCAGCTGATGAATTGAGGCGTTCGAGTAAACAAATTTTCCTAATCTTTCTGTTCAAGCGCCATCTAC”, for which the binding signal (RPM ratio (pull-down/input)) stood at 1.51. Next, “GATGATTGTTCTCCCAGCTGATGAATTCATAGGATCGAGTAAACAAATTTTCCTAATCTTTCTGTTCAAGCGCCATCTAC”: 0.267; “GATGATTGTTCTCCCAGCTGATGAATTCACTCTGTCGAGTAAACAAATTTTCCTAATCTTTCTGTTCAAGCGCCATCTAC”: 0.278. In the case of “GATGATTGTTCTCCCAGCTGATGAATTCACCTACTCGAGTAAACAAATTTTCCTAATCTTTCTGTTCAAGCGCCATCTAC”, the binding signal (RPM ratio (pull-down/input)) was 0.375.

With “GATGATTGTTCTCCCAGCTGATGAATTTTACTAATCGAGTAAACAAATTTTCCTAATCTTTCTGTTCAAGCGCCATCTAC”, the binding signal (RPM ratio (pull-down/input)) was found to be 0.294. Next, “GATGATTGTTCTCCCAGCTGATGAATTAATTTATTCGAGTAAACAAATTTTCCTAATCTTTCTGTTCAAGCGCCATCTAC”: 2.61. Next, “GATGATTGTTCTCCCAGCTGATGAATTTTGCTATTCGAGTAAACAAATTTTCCTAATCTTTCTGTTCAAGCGCCATCTAC”: 5.16; “GATGATTGTTCTCCCAGCTGATGAATTTTTTTTGTCGAGTAAACAAATTTTCCTAATCTTTCTGTTCAAGCGCCATCTAC”: 0.36; “GATGATTGTTCTCCCAGCTGATGAATTGTACCTCTCGAGTAAACAAATTTTCCTAATCTTTCTGTTCAAGCGCCATCTAC”: 0.593. “GATGATTGTTCTCCCAGCTGATGAATTCCACGCTTCGAGTAAACAAATTTTCCTAATCTTTCTGTTCAAGCGCCATCTAC”: the binding signal (RPM ratio (pull-down/input)) was 0.518. “GATGATTGTTCTCCCAGCTGATGAATTCTCCATATCGAGTAAACAAATTTTCCTAATCTTTCTGTTCAAGCGCCATCTAC”: the binding signal (RPM ratio (pull-down/input)) was 0.269. The value for “GATGATTGTTCTCCCAGCTGATGAATTCGTGGCCTCGAGTAAACAAATTTTCCTAATCTTTCTGTTCAAGCGCCATCTAC” was 0.847; that for “GATGATTGTTCTCCCAGCTGATGAATTCGTCCAATCGAGTAAACAAATTTTCCTAATCTTTCTGTTCAAGCGCCATCTAC” was 0.252; that for “GATGATTGTTCTCCCAGCTGATGAATTGTACCACTCGAGTAAACAAATTTTCCTAATCTTTCTGTTCAAGCGCCATCTAC” was 0.629. As to “GATGATTGTTCTCCCAGCTGATGAATTTCCCGAATCGAGTAAACAAATTTTCCTAATCTTTCTGTTCAAGCGCCATCTAC”, the binding signal (RPM ratio (pull-down/input)) is 0.191. Turning to “GATGATTGTTCTCCCAGCTGATGAATTTGGTGAATCGAGTAAACAAATTTTCCTAATCTTTCTGTTCAAGCGCCATCTAC”, the binding signal (RPM ratio (pull-down/input)) is 0.367. Turning to “GATGATTGTTCTCCCAGCTGATGAATTAATGACATCGAGTAAACAAATTTTCCTAATCTTTCTGTTCAAGCGCCATCTAC”, the binding signal (RPM ratio (pull-down/input)) was 0.775. In the case of “GATGATTGTTCTCCCAGCTGATGAATTTATACAGTCGAGTAAACAAATTTTCCTAATCTTTCTGTTCAAGCGCCATCTAC”, the binding signal (RPM ratio (pull-down/input)) was found to be 0.558. As to “GATGATTGTTCTCCCAGCTGATGAATTGCAGAGCTCGAGTAAACAAATTTTCCTAATCTTTCTGTTCAAGCGCCATCTAC”, the binding signal (RPM ratio (pull-down/input)) was 0.414.

As for “GATGATTGTTCTCCCAGCTGATGAATTACGAAGGTCGAGTAAACAAATTTTCCTAATCTTTCTGTTCAAGCGCCATCTAC”, the binding signal (RPM ratio (pull-down/input)) was found to be 0.285. Next, “GATGATTGTTCTCCCAGCTGATGAATTGTGTGATTCGAGTAAACAAATTTTCCTAATCTTTCTGTTCAAGCGCCATCTAC”: 5.27; “GATGATTGTTCTCCCAGCTGATGAATTAGTAGCCTCGAGTAAACAAATTTTCCTAATCTTTCTGTTCAAGCGCCATCTAC”: 1.23; “GATGATTGTTCTCCCAGCTGATGAATTAAGAAGGTCGAGTAAACAAATTTTCCTAATCTTTCTGTTCAAGCGCCATCTAC”: 0.191.

Consider “GATGATTGTTCTCCCAGCTGATGAATTCTTTCCCTCGAGTAAACAAATTTTCCTAATCTTTCTGTTCAAGCGCCATCTAC”, for which the binding signal (RPM ratio (pull-down/input)) stood at 0.206. Next, “GATGATTGTTCTCCCAGCTGATGAATTACAAAGCTCGAGTAAACAAATTTTCCTAATCTTTCTGTTCAAGCGCCATCTAC”: 0.413; “GATGATTGTTCTCCCAGCTGATGAATTCGTTCCCTCGAGTAAACAAATTTTCCTAATCTTTCTGTTCAAGCGCCATCTAC”: 0.393; “GATGATTGTTCTCCCAGCTGATGAATTGCTGTTCTCGAGTAAACAAATTTTCCTAATCTTTCTGTTCAAGCGCCATCTAC”: 1.54.

Consider “GATGATTGTTCTCCCAGCTGATGAATTTTGTCCATCGAGTAAACAAATTTTCCTAATCTTTCTGTTCAAGCGCCATCTAC”, for which the binding signal (RPM ratio (pull-down/input)) turned out to be 1.43.

As to “GATGATTGTTCTCCCAGCTGATGAATTTCCCAAATCGAGTAAACAAATTTTCCTAATCTTTCTGTTCAAGCGCCATCTAC”, the binding signal (RPM ratio (pull-down/input)) was 0.2.

The values are drawn from publication PMC12820563.
